Laboratory results reported in the supplement of paper PMC12217912.
This is one part of the list. The full chains were built here from the parent and the listed change. Inactive controls read about 0.05.

B1: TEV protease; numbered along this chain (parent)
chain: MGESLFKGPRDYNPISSSICHLTNESDGHTTSLYGIGFGPFIITNKHLFRRNNGTLVVQSLHGVFKVKDTTTLQQHLVDGRDMIIIRMPKDFPPFPQKLKFREPQREERICLVTTNFQTKSMSSMVSDTSCTFPSGDGIFWKHWIQTKDGQCGSPLVSTRDGFIVGIHSASNFTNTNNYFTSVPKNFMELLTNQEAQQWVSGWRLNADSVLWGGHKVFMVKPEEPFQPVKEATQL

Variants of: B1
Test: raw area under fraction-flipped curve 0-4 h after induction (AUC4h, not background-subtracted), DNA-recorder readout of cleavage of the substrate (dimensionless); higher = more cleavage of the substrate by the protease variant
Conditions: temperature: 34 °C; time window: 0-4 h after rhamnose induction
Description: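 In vivo DNA recorder in E. coli TOP10(DE3) ΔrhaA at 34 °C. Each TEVp single-site mutant (parent TEVp 0) is paired with a single-site variant of the 7-mer TEVs (canonical ENLYFQ|S). The substrate sits between flexible linkers in a Bxb1-sfGFP-TEVs-SsrA fusion, so cleavage stabilises Bxb1 and speeds flipping of a recombination array, read by NGS. The value is the raw area under the fraction-flipped curve over 0-4 h after rhamnose induction (AUC4h), with ≥20 reads per time point. It is not background-subtracted; inactive controls average about 0.047.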
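Further: Bxb1 expression induced with 0.2% (w/v) L-rhamnose at OD600 near 0.5, cultures sampled hourly, flipped fraction per protease–substrate barcode pair counted by paired-end Illumina sequencing.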

Row | Variant | area with substrate ENLYFAS | area with substrate ENLYFES | area with substrate ENLYFFS | area with substrate ENLYFIS | area with substrate ENLYFKS | area with substrate ENLYFPS | area with substrate ENLYFTS | area with substrate ENLYFCS | area with substrate ENLYFDS | area with substrate ENLYFGS | area with substrate ENLYFHS | area with substrate ENLYFLS | area with substrate ENLYFMS | area with substrate ENLYFNS | area with substrate ENLYFRS | area with substrate ENLYFSS | area with substrate ENLYFVS | area with substrate ENLYFWS | area with substrate ENLYFYS
1 | N186Y | 0.0636 | 0.0636 | 0.0698 | 0.0581 | 0.0884 | 0.0508 | 0.0691 |  |  |  |  |  |  |  |  |  |  |  | 
2 | G80Q | 0.0559 | 0.056 | 0.0669 | 0.0594 | 0.0621 | 0.0571 | 0.0673 | 0.0489 | 0.0623 | 0.0609 | 0.0613 | 0.0605 | 0.0614 | 0.0771 | 0.0599 | 0.0631 | 0.0527 | 0.0588 | 
3 | E224D | 0.0353 | 0.0655 | 0.0576 | 0.0575 | 0.0687 | 0.057 | 0.0645 |  | 0.0595 | 0.0643 | 0.0537 | 0.0589 | 0.0628 | 0.0689 |  | 0.0548 | 0.058 | 0.0538 | 0.0647
4 | E224L | 0.0461 | 0.0667 | 0.0629 | 0.058 |  | 0.0529 | 0.0539 | 0.0639 |  |  |  | 0.0578 | 0.0322 | 0.0671 | 0.0738 | 0.0598 | 0.0605 | 0.0588 | 0.0836
5 | G153V | 0.0393 |  | 0.0443 | 0.047 | 0.0426 | 0.0519 | 0.0531 | 0.0512 |  |  | 0.0473 | 0.0477 | 0.0366 | 0.0453 | 0.048 | 0.051 |  |  | 
6 | F41D | 0.047 |  | 0.0531 | 0.0471 | 0.0632 | 0.0519 | 0.0263 | 0.0602 | 0.0246 | 0.0439 | 0.0599 | 0.0393 | 0.0607 |  | 0.0491 | 0.056 | 0.0524 | 0.0532 | 
7 | S16F | 0.0524 | 0.0596 | 0.0691 | 0.0551 |  | 0.0484 |  |  |  | 0.0378 | 0.0696 |  | 0.068 | 0.109 | 0.039 | 0.0573 | 0.0539 |  | 
8 | V165C | 0.0363 | 0.0621 | 0.0677 | 0.0555 |  | 0.0548 | 0.0477 |  | 0.058 | 0.0605 |  |  | 0.0531 | 0.0655 |  | 0.0582 | 0.0536 | 0.0648 | 0.0732
9 | Q75N | 0.0592 | 0.059 | 0.0692 | 0.0496 |  | 0.0514 |  | 0.0402 |  |  |  |  | 0.057 |  |  | 0.0561 |  | 0.0439 | 
10 | R51I | 0.0427 | 0.0659 | 0.0712 | 0.0529 | 0.0624 | 0.0662 | 0.0535 | 0.0661 | 0.0701 |  | 0.0413 | 0.0581 | 0.0677 |  |  |  | 0.067 | 0.0523 | 0.0495
11 | V64H | 0.0639 |  | 0.0688 |  |  | 0.0483 |  | 0.064 |  |  |  |  |  |  |  |  |  | 0.0655 | 
12 | L112M | 0.0688 |  |  | 0.055 | 0.0606 |  |  | 0.0646 |  |  |  | 0.0683 | 0.0667 | 0.0581 | 0.0485 |  |  | 0.0589 | 
13 | L112V | 0.0472 | 0.0569 | 0.0619 | 0.0554 |  | 0.0606 | 0.0625 | 0.0983 | 0.0562 |  | 0.0528 | 0.0594 | 0.0608 |  | 0.0775 | 0.0469 | 0.0553 |  | 
14 | L112G | 0.0518 | 0.0617 | 0.0797 | 0.0486 |  | 0.0667 | 0.0526 |  | 0.0454 | 0.0616 |  |  | 0.0522 | 0.0636 |  | 0.0521 | 0.0684 | 0.064 | 
15 | E189K | 0.0455 |  |  | 0.0458 | 0.0562 |  | 0.0677 |  | 0.0266 |  |  |  |  |  |  | 0.0521 | 0.0791 |  | 
16 | S32K | 0.0634 |  | 0.0661 | 0.0528 | 0.0651 | 0.0496 | 0.0578 | 0.0502 |  | 0.0569 | 0.0578 |  | 0.0295 | 0.0414 | 0.044 | 0.0573 |  | 0.0652 | 
17 | S32F | 0.0577 | 0.0618 | 0.0549 | 0.0533 | 0.0602 | 0.0607 | 0.0751 | 0.0609 | 0.0559 | 0.0597 | 0.0573 | 0.0653 | 0.0474 | 0.0527 |  | 0.0398 | 0.0553 |  | 0.0511
18 | S121Q | 0.0534 | 0.0748 | 0.0649 | 0.0647 | 0.065 | 0.0597 | 0.0573 | 0.0734 | 0.0554 | 0.0607 | 0.0657 | 0.0537 | 0.0783 | 0.0683 | 0.0544 | 0.0682 | 0.0543 | 0.0527 | 
19 | T55Q | 0.0597 | 0.0666 | 0.0656 | 0.0569 |  | 0.0609 | 0.0389 | 0.0735 | 0.0345 |  |  | 0.0712 | 0.0658 | 0.0589 | 0.0627 | 0.0861 | 0.0522 | 0.0552 | 0.0549
20 | K120A | 0.0463 |  | 0.0702 | 0.0526 | 0.0741 | 0.0511 | 0.0668 |  |  |  | 0.0581 |  |  | 0.0545 | 0.0648 |  | 0.0519 |  | 
21 | K120E | 0.0564 | 0.0632 | 0.0682 | 0.0584 | 0.0517 | 0.0525 |  |  | 0.0503 |  | 0.064 | 0.0414 | 0.0689 |  | 0.0626 |  |  | 0.0337 | 
22 | T174L | 0.0621 |  |  | 0.0373 | 0.0375 | 0.072 |  |  |  | 0.0614 |  | 0.0644 |  |  |  |  |  |  | 
23 | T174R | 0.0422 | 0.0638 | 0.0739 | 0.0589 | 0.0588 | 0.0619 | 0.0712 | 0.0697 | 0.0659 |  | 0.0464 | 0.0625 | 0.0609 |  | 0.0516 |  | 0.0454 | 0.0485 | 0.0536
24 | S127T | 0.0599 | 0.0609 | 0.0552 | 0.0598 | 0.0617 | 0.0622 |  | 0.0517 | 0.0634 | 0.0618 | 0.0584 |  | 0.0653 | 0.0531 |  |  |  | 0.0645 | 
25 | H215Q | 0.0328 | 0.0595 |  | 0.0648 | 0.0688 | 0.0536 | 0.0596 | 0.049 |  |  | 0.0554 |  | 0.0504 | 0.0583 | 0.0448 |  | 0.0573 | 0.0433 | 0.0699
26 | R160G | 0.0609 | 0.066 |  | 0.0605 |  | 0.0664 | 0.0725 | 0.0414 |  |  | 0.0564 |  | 0.0641 | 0.0573 | 0.0527 | 0.0718 | 0.0563 | 0.06 | 
27 | R160C | 0.0581 | 0.064 | 0.0681 | 0.0522 | 0.0491 | 0.0574 | 0.0754 |  |  | 0.0603 | 0.061 |  |  | 0.051 |  | 0.0589 | 0.0521 | 0.0574 | 0.0544
